Assay results reported in PubChem BioAssay AID652106 (National Center for Advancing Translational Sciences (NCATS), 2013).
Where “and” joins values, the source holds several entries; their conditions need not be identical. Equal entries are not always repeated. About 500 (0.14%) of roughly 370,000 compounds were called active. Inconclusive results, whose numbers are uncertain, are shown with a selection of clear calls. Calls come from the whole dose curve; as a rule, active = well fitted activation curve with a large enough effect; inconclusive = small, poorly fitted or top-dose-only effect; inactive = no such curve, though single readings can be large or run the other way. A potency beside an inconclusive call is a rough fit, not a confirmed value.

Assay: qHTS of alpha-syn Inhibitors; note: nearly all actives have a fitted effect of over 65% in size; for growth rescue (activation): % of control where 0% means no effect
Conditions: Yeast expressing alpha-synuclein, BacTiter-Glo, 24 h; Potency: growth rescue unless noted; growth rescue (activation): at 46.1 µM (top of the series) unless noted
Excerpt: The goal of this project is to identify new chemical probes capable of reversing the toxicity associated with the Parkinson disease-related protein, alpha-synuclein. Compounds will be selected on their ability to restore growth in yeast cells expressing toxic levels of alpha-synuclein. These compounds will provide a complementary approach to deciphering the tangled mechanisms of toxicity and protection that we have uncovered through genome-wide genetic screens and are beginning to uncover in a large-scale proteomics analysis with mass spectroscopy. To this end, a miniaturized assay was developed to be screened against the Molecular Libraries Small Molecule Repository (MLSMR) to discover alpha-synuclein inhibitors. Please note that in the set-up this yeast-based assay compounds that inhibit as alpha-syn, have a read-out as activators. NIH Chemical Genomics Center [NCGC] NIH Molecular Libraries Probe Centers Network [MLPCN] MLPCN Grant: NS060957 Assay Submitter (PI): Susan Lindquist, Whitehead Institute/MIT
Dispense 2.5 microL yeast galactose medium per 1536-well plate, pin compound, dispense 2.5 microL alpha-synuclein expressing yeast in galactose medium at OD600=0.02 (pregrown in raffinose medium to mid-log phase) per well, incubate for 24 hr at 30 deg C, and cell growth will be measured using 5 microL of Bactiter/Glo reagent to entire plate and read using Luminescence Protocol in ViewLux.
Potency is the fitted concentration of half-maximal effect; tags give direction and shape of the fitted curve.

Row | Structure (SMILES) | Potency | growth rescue (activation)
1 | Cc1cccc(NC(=O)c2cc(NC(=O)CCCC(=O)O)ccc2Cl)n1 | inconclusive: 5.62 µM [activator, single point] | –
2 | CCOc1ccccc1NC(=O)Cc1coc2ccc(C)cc12 | active: 12.6 µM | –
3 | Cc1ccc(S(=O)(=O)Nc2ccc(O)c3ncccc23)cc1 | inconclusive: 31.6 µM [activator, single point] | –
4 | C=CCn1c(SCc2cc(=O)n3ccsc3n2)nc2ccccc2c1=O | inactive | –
5 | Cc1ccnc(SCc2cc(=O)c(OC(=O)c3ccc(Cl)c([N+](=O)[O-])c3)co2)n1 | inconclusive: 3.98 µM [activator, single point] | –
6 | COc1ccc2c(n1)Sc1nc3ccccc3nc1N2 | inconclusive: 0.562 µM [activator, partial curve, poor fit] | –
7 | COc1ccc([C@@H]2[C@@H]3C(=O)N(C(C)(C)C)C(=O)[C@@H]3[C@]3(Cc4ccccc4)C(=O)N(c4ccc(Br)cc4)C(=O)N23)cc1 | inactive | –
8 | CCc1cccc(NC(=O)COC(=O)CSc2ccc(C)cc2)c1 | inconclusive: 5.01 µM [activator, single point] | –
9 | N#C/C(=C\c1ccc(Cl)cc1)c1nc2ncccc2[nH]1 | inconclusive: 4.47 µM [activator, full curve, poor fit] | –
10 | COc1cc(C(O)c2nc(-c3ccccc3OC)cs2)ccc1F (centres undefined) | inconclusive: 14.1 µM [activator, partial curve] | –
11 | Clc1ccc(OCc2nc(-c3ccccn3)n[nH]2)cc1 | inconclusive: 31.6 µM [activator, single point] | –
12 | OC(COc1ccc2ccccc2c1Br)Cn1cnc(-c2ccccc2)c1 (centres undefined) | inconclusive: 17.8 µM [activator, single point] | –
13 | Oc1c(Cl)cc(Cl)cc1/C=N/Nc1ncc(Br)cn1 | active: 1 µM | –
14 | O=C1NC(=O)C2C3OC(C(Br)C3Br)C12 (centres undefined) | inconclusive: 35.5 µM [activator, single point] | –
15 | N#Cc1ccc(C(=O)OCCCc2cc3ccccc3c(=O)o2)cc1 | inconclusive: 11.2 µM [activator, partial curve] | –
16 | Cc1ccc(S(=O)(=O)N2CCN(C(=O)c3cccs3)CC2)cc1C | inconclusive: 5.62 µM [activator, single point] | –
17 | CCOC(=O)N1CCC(NC(=O)CC(NS(=O)(=O)c2ccc(Cl)cc2)c2ccco2)CC1 (centres undefined) | inconclusive: 4.47 µM [activator, single point] | –
18 | O=c1ccc2ccccc2c2ccccc12 | – | inconclusive: -39% [activator]
19 | Fc1ccccc1CNC(=S)NC1CCCCC1 | inconclusive: 5.62 µM [activator, single point] | –
20 | O=C(Nc1cccc(C(F)(F)F)c1)C1Cc2c(-c3ccc(Cl)cc3)ccnc2O1 (centres undefined) | inconclusive: 28.2 µM [activator, single point] | –
21 | CCCc1nc(SCC(=O)N2CCCc3ccccc32)c2c(=O)n(C)c(=O)n(C)c2n1 | inactive | –
22 | CC(=O)C1=CCC(c2ccc(Cl)cc2)N(S(=O)(=O)c2ccc(C)cc2)C1 (centres undefined) | inconclusive: 12.6 µM [activator, single point] and inconclusive: 2.82 µM [activator, single point] | –
23 | CCCCCC1CC1C(=O)N/N=C/c1ccc(N(C)C)cc1 (centres undefined) | inactive | –

Row | Structure (SMILES) | Potency | growth rescue (activation)
24 | CCOc1ccc(-c2[nH]ncc2Oc2ccccc2OC)c(O)c1 | inconclusive: 10 µM [activator, partial curve] | –
25 | Cc1ccc(CN2CC(C(=O)N3CCN(S(=O)(=O)c4cccc(F)c4)CC3)CC2=O)cc1 (centres undefined) | inactive | –
26 | CS(=O)(=O)c1ccc(Cl)c(NC(=O)Cc2ccccc2F)c1 | inconclusive: 25.1 µM [activator, single point] | –
27 | Cc1cc(C)c(C)c(S(=O)(=O)N2CCN(c3ccc(O)cc3)CC2)c1C | active: 15.8 µM | –
28 | O=C(NCc1ccc2c(c1)OCO2)c1ccc(-c2ccc(Cl)cc2)o1 | inconclusive: 17.8 µM [activator, single point] | –
29 | C=C[C@@](C)(O)CC[C@@H]1[C@@]2(C)CCCC(C)(C)[C@@H]2CC[C@@]1(C)O | inconclusive: 20 µM [activator, single point] | –
30 | CC(C)CC(=O)Nc1ccc(-c2nc3ccccc3c(=O)o2)cc1 | inactive | –
31 | CN1CCN(CCNC(=O)c2ccc3nc(-c4ccc(F)cc4)c(-c4ccc(F)cc4)nc3c2)CC1 | inconclusive: 31.6 µM [activator, single point] | –
32 | NS(=O)(=O)c1ccc(NC(=O)CSc2nnc(COc3ccccc3Cl)n2C2CC2)cc1 | inconclusive: 35.5 µM [activator, single point] | –
33 | Cc1ccc([N+](=O)[O-])cc1N/C=C/C(=O)c1ccco1 | inconclusive: 22.4 µM [activator, single point] | –
34 | CN(C)Cc1c(C(=O)N/N=C/c2ccccc2OCc2c(F)cccc2Cl)nnn1-c1nonc1N | inactive | –
35 | C/C(Cl)=C\Cn1c(O)c(N=O)c2ccccc21 | inconclusive: 15.8 µM [activator, single point] | –
36 | COc1cc2nc(N3CCN(C(=O)C4COc5ccccc5O4)CC3)nc(N)c2cc1OC (centres undefined) | inconclusive: 5.62 µM [activator, single point] | –
37 | C=CCNc1nc(Cl)nc(Nc2ccc(OC)cc2)n1 | inactive | –
38 | COc1cccc(OC)c1C(=O)OCC(=O)NCc1ccco1 | inactive | –
39 | Nc1cc(-c2ccc(Br)cc2)nn1S(=O)(=O)c1cccc2nsnc12 | inconclusive: 15.8 µM [activator, single point] | –
40 | CCOc1ccc2[nH]cc(S(=O)(=O)c3ccc(C)cc3)c(=O)c2c1 | inactive | –
41 | Cc1nc(/N=C\c2ccc(N(C)C)cc2)sc1C | inactive | –
42 | CNS(=O)(=O)c1cc2c3c(cccc3c1)C(=O)NC2=O | inactive | –
43 | Cc1nc(NC(=O)/C=C/c2ccccc2)n[nH]1 | inconclusive: 11.2 µM [activator, partial curve] | –
44 | O=C(NCCc1ccccc1)C1C(=O)Nc2ccccc2C(=O)N1C1CCCCC1 (centres undefined) | active: 12.6 µM | –
45 | CC1COC(=O)C(NNc2ccc(Cl)c(Cl)c2)=N1 (centres undefined) | inactive | –
46 | CCOC(=O)Cn1c(=O)c2c(nc(Br)n2Cc2ccc(Cl)cc2)n(C)c1=O | inactive | –

Row | Structure (SMILES) | Potency | growth rescue (activation)
47 | CC1CCN(S(=O)(=O)c2ccc3c(ccn3CC(=O)O)c2)CC1 | inconclusive: 5.62 µM [activator, single point] | –
48 | FC(F)(F)c1cc(CCN2C(=S)NC[C@@H]2c2ccccc2)cc(C(F)(F)F)c1 | inconclusive: 35.5 µM [activator, single point] | –
49 | Cc1ccc(C(=O)C(OC(=O)CCC(=O)Nc2cccc(C)c2)c2ccccc2)cc1 (centres undefined) | inactive | –
50 | Cc1ccc2nc(N3CCN(C(=O)CCCC(=O)O)CC3)nc(-c3ccccc3)c2c1 | inactive | –
51 | COC(=O)c1c(NS(=O)(=O)Cc2ccccc2)sc2c1CCCC2 | inconclusive: 31.6 µM [activator, single point] | –
52 | Cc1ccccc1N=Nc1ccc(O)c2ncccc12 | inconclusive: 5.62 µM [activator, single point] | –
53 | Cc1cccc(NC2CCCCC2NS(=O)(=O)c2ccccc2)c1 (centres undefined) | inconclusive: 22.4 µM [activator, single point] | –
54 | CCc1nc(NC(C)(C)C)c2cnn(-c3ccccc3)c2n1 | inconclusive: 35.5 µM [activator, single point] | –
55 | COc1cccc(NC(=O)CN2C(=O)NC(c3ccccc3)(c3ccccc3)C2=O)c1 | inconclusive: 5.62 µM [activator, single point] | –
56 | CCc1cccc(OCC(=O)Nc2cc(Cl)ccc2-n2cncn2)c1 | inconclusive: 12.6 µM [activator, single point] | –
57 | O=C(NC1CCCC1)C(c1ccccc1)n1c(CSCCOc2ccccc2)nc2ccccc21 (centres undefined) | inconclusive: 31.6 µM [activator, single point] | –
58 | COc1ccc(C2=NOC3(CC(=O)N(c4ccc(C)cc4)C3=O)C2)c(OC)c1 (centres undefined) | inconclusive: 35.5 µM [activator, single point] | –
59 | Cc1cccc(C)c1N1C(=O)C2ON(c3ccccc3)C(c3ccncc3)C2C1=O (centres undefined) | inconclusive: 7.94 µM [activator, partial curve] | –
60 | O=C(COc1ccccc1)N1CCN(C(=O)c2ccccc2F)CC1 | inconclusive: 35.5 µM [activator, single point] | –
61 | Cc1ccc2c(=O)cc(C(=O)NCc3ccccc3)oc2c1C | inactive | –
62 | Cc1ccc(S(=O)(=O)N2CCCCC2)cc1NC(=O)CNCc1ccco1 | inconclusive: 35.5 µM [activator, single point] | –
63 | Cc1ccccc1/C(N)=N/OC(=O)c1ccc(F)cc1 | inconclusive: 31.6 µM [activator, single point] | –
64 | O=C(CN1C(=O)COc2ccc(S(=O)(=O)N3CCOCC3)cc21)N1CCN(c2ccc(Cl)cc2)CC1 | inconclusive: 31.6 µM [activator, single point] | –
65 | CCCCc1ccc(CC(=O)NO)cc1 | active: 15.8 µM | –
66 | COc1ccc(Cl)cc1NC(=O)CC(C)c1ccccc1 (centres undefined) | inactive | –
67 | CCOc1ccc(CCN2C(=O)C(=O)N([C@@H](Cc3ccc(O)cc3)CN3CCC[C@H]3CN3C(=O)C(=O)NC[C@@H]3Cc3ccc(O)cc3)C[C@@H]2Cc2ccc(O)cc2)cc1 | inconclusive: 5.62 µM [activator, single point] | –
68 | COc1ccc2nc(C)cc(Nc3ccc(C(=O)O)cc3)c2c1 | inconclusive: 5.62 µM [activator, single point] | –
69 | Cc1ccc(Nc2nc3ccccc3n3cnnc23)c(Cl)c1 | inconclusive: 3.55 µM [activator, single point] | –
